Experimental findings from patent US20250043016A1 (SANYOU BIOPHARMACEUTICALS, published 2025) are described below.

Usually EC50 stands for the concentration at which the effect is half-maximal. As usually defined, the EC50 (read off the curve) is the concentration giving half of the maximal effect.

Changes are numbered by the printed parent chain.

Test [1] addresses T1, human TNFR2 full-length protein overexpressed on huTNFR2-HEK293 / huTNFR2-Jurkat cells (human, UniProt P20333 23-461).
T1 construct: Full-length entry including the signal peptide; also called TNFRSF1B
T1 sequence: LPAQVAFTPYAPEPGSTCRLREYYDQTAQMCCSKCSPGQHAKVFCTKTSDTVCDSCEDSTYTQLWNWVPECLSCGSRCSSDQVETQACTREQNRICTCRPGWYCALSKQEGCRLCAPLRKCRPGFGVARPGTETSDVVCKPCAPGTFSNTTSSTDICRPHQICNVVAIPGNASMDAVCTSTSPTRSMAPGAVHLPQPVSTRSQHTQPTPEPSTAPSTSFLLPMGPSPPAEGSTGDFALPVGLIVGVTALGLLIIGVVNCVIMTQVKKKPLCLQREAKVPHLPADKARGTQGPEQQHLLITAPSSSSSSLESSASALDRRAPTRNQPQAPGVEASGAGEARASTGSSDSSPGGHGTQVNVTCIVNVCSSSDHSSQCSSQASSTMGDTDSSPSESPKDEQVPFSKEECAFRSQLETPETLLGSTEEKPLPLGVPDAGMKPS
Kind of test: FACS on huTNFR2-HEK293 cells. Here is the method: (§1) The obtained VHH-Fc chimeric antibody was evaluated for affinity activity. The binding activity of the VHH-Fc chimeric antibody to a TNFR2 protein on cells was detected by FACS.
To detect the binding activity of the affinity-matured molecule to a human TNFR2 antigen, FACS was used to detect the candidate affinity-matured molecules in this example. For the specific method, see example 5.

Test [2] deals with T1, human TNFR2 full-length protein …. Kind of test: FACS on huTNFR2-HEK293 cells, PE anti-human IgG-Fc. How it is done: as §1
To detect the binding activity of the humanized antibody to a human TNFR2 antigen, FACS was used to detect the anti-TNFR2 VHH-Fc chimeric antibody and the corresponding humanized antibody thereof. The specific method was similar to that in example 5.

For test [3], the target named is recombinant cynomolgus monkey TNFR2 (SinoBiological, 90102-C08H) (cynomolgus monkey). Put plainly: ELISA on plate-coated recombinant cynomolgus monkey TNFR2, detection with anti-human-IgG-Fc-HRP. On the technique in general: In an ELISA, binding on a coated surface is turned into a signal by an enzyme label.
Test [4] addresses T1, human TNFR2 full-length protein …. Put plainly: FACS on huTNFR2-HEK293 cells, PE anti-human IgG-Fc. How it is done: as §1
The source holds these as a separate data set.

B1: humanized antibody NB92-161-hVH5 (Fc fusion)
chain: EVQLVESGGGLVQPGGSLRLSCAASGSIFSINDMGWYRQAPGKGLELVAAIGRGGGSTNYADSVKGRFTISRDNAKNTLYLQMNSLRAEDTAVYYCHAEISQLTWAFRDYWGQGTLVTVSS[human IgG1 Fc not listed]
Turning to B1, the EC50 in test [1] worked out at 0.336 µg/mL. In addition, the “EC50 (read off the curve)” value in test [2] was roughly 0.5 µg/mL.

B2: humanized antibody NB92-161-hVH4 (Fc fusion)
chain: B1 chain with G44Q, L45R
For the molecule B2, the “EC50 (read off the curve)” value in test [2] is roughly 0.6 µg/mL.

B3: anti-TNFR2 VHH-Fc chimeric antibody NB92-161 (Fc fusion)
chain: B1 chain with G44Q, L45R, L79V, R87K, A88P, L116Q
notes: C-terminus of VHH ligated to N-terminus of human IgG1 Fc fragment; also called parent molecule
On to B3, for which the EC50 (read off the curve) was 0.2 µg/mL in test [3] and roughly 0.5 µg/mL in test [2]. In test [4], this molecule returned an EC50 of 0.513 µg/mL.

B4: anti-TNFR2 affinity-matured molecule 161-hVH5-48 (Fc fusion)
chain: B1 chain with F29R, S30F, T104G, W105Y
As to B4, the EC50 in test [1] was 0.0664 µg/mL.
